Test [1] concerns the target T1, Flag-tagged Wnt7a (UniProt P24383).
T1 sequence: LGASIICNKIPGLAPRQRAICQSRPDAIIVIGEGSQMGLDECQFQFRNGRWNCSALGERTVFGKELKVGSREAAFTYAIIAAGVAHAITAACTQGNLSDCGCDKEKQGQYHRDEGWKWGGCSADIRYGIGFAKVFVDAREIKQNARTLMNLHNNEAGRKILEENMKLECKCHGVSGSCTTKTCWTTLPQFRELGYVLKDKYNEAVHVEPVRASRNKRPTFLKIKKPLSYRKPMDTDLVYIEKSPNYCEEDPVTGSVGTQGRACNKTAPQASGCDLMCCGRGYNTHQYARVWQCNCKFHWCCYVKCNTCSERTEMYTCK
In words: pull-down; solution binding assay: Flag-Wnts immobilised on beads, incubated with the Myc-tagged soluble ectodomain protein; bound proteins resolved by SDS-PAGE and blotted with anti-Myc and anti-Flag.

Protein sequences, listed by entry. Tags and fused reporters are not part of them. Residues count along the entry.
UniProt Q9QYP1, residues 21-1723: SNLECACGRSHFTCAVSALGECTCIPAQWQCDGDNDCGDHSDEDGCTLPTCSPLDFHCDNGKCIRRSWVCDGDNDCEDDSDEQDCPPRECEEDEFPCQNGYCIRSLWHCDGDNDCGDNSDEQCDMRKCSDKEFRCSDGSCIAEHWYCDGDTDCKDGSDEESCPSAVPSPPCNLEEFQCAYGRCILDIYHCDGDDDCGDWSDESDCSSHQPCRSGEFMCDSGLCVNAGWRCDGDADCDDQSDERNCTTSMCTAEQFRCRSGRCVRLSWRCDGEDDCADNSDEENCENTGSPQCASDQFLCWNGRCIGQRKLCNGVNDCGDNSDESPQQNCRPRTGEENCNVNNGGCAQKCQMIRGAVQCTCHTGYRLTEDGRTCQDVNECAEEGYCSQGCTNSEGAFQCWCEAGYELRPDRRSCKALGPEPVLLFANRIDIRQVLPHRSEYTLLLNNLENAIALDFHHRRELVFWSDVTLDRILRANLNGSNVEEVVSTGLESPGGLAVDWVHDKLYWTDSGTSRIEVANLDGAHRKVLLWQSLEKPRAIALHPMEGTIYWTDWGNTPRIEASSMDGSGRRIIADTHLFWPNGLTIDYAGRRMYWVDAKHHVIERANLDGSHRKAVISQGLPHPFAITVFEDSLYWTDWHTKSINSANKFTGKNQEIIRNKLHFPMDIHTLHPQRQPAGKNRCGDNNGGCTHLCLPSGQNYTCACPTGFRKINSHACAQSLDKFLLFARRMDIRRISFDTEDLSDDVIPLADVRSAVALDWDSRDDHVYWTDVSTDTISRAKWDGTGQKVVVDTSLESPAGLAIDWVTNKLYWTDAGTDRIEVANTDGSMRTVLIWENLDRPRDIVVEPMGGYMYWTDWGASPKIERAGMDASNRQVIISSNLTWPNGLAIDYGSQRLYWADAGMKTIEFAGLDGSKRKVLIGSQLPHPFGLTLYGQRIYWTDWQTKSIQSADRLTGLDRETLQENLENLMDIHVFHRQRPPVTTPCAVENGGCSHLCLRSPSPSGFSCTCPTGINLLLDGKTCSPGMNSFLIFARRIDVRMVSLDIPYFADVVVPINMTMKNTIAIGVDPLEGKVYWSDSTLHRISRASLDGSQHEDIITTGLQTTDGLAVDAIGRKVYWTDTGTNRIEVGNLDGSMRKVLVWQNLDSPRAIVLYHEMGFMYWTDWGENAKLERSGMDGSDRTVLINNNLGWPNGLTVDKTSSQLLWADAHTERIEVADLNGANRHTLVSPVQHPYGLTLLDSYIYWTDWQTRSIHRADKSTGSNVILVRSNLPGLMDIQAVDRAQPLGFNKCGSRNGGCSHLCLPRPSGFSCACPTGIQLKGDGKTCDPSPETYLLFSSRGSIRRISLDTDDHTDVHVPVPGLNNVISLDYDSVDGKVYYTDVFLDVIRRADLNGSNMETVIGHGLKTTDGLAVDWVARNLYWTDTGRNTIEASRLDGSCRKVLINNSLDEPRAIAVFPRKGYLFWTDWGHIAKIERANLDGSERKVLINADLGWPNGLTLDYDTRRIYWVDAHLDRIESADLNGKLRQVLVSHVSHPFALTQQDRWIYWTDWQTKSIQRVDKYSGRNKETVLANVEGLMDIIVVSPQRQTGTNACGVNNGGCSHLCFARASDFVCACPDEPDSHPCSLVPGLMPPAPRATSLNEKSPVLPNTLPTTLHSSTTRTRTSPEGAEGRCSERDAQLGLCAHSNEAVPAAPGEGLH

For test [2], the target named is T2, Flag-tagged Wnt9a (UniProt Q8R5M2).
T2 sequence: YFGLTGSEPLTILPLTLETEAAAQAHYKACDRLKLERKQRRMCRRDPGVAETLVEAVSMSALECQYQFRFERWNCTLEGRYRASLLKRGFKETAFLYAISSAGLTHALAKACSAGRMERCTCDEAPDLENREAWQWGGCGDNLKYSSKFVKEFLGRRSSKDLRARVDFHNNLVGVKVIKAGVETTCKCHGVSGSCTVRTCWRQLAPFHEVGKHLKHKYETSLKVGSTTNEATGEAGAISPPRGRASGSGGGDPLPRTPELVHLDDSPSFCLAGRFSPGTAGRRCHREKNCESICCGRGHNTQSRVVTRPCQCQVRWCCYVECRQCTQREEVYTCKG
The test is described as above.

The target of test [3] is T3, Flag-tagged Wnt11 (UniProt P48615).
T3 sequence: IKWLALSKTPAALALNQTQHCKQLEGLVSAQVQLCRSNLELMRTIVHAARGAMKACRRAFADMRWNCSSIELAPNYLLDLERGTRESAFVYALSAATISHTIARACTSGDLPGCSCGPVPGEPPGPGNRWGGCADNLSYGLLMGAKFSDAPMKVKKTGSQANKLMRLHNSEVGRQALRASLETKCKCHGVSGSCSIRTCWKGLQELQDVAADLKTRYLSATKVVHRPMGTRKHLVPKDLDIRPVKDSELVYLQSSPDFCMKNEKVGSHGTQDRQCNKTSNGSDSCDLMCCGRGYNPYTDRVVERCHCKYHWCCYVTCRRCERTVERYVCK
Described as above.

Test [4] addresses MuSK (Flag-MuSK and MuSK-Myc) (UniProt Q61006). In words: co-IP; Flag-MuSK and MuSK-Myc co-transfected into C2C12 myoblasts; resulting myotubes treated 1 h with control medium, agrin, Wnt9a or Wnt11; lysates precipitated with anti-Flag, blotted with anti-Myc.
Test [5] deals with T1, Flag-tagged Wnt7a. In words: pull-down; solution binding assay: Flag-Wnts immobilised on beads, incubated with the Myc-tagged soluble ectodomain protein; bound proteins resolved by SDS-PAGE and blotted with anti-Myc and anti-Flag. The source holds these as a separate data set.
The target in test [6] is T2, Flag-tagged Wnt9a. The description is as above. This is another data set of the same source.
The target in test [7] is T3, Flag-tagged Wnt11. The test is described as above. The source holds these as a separate data set.

Like-named read-outs stand apart in the source and are kept apart here. These are yes or no findings as the source states them, for the method shown. Binding seen in cells or lysates may run through a third protein. Some binding calls cover weakened binding; strength is not graded here. Sequences can lack the tags named with a protein.

For “LRP4N-Myc, a Myc-tagged recombinant protein containing the extracellular domain of LRP4 (from UniProt Q9QYP1 21-1723) (domain or fragment)”, the binding entry in the test with Flag-tagged Wnt7a [1] was “no binding”; with Flag-tagged Wnt9a [2], “binds”; in the test with Flag-tagged Wnt11 [3], “binds”.

B1: MuSK (Flag-MuSK and MuSK-Myc) (receptor, UniProt Q61006 22-868)
chain: EKLPKAPVITTPLETVDALVEEVATFMCAVESYPQPEISWTRNKILIKLFDTRYSIRENGQLLTILSVEDSDDGIYCCIANNGVGGAVESCGALQVKMKPKITRPPINVKIIEGLKAVLPCTTMGNPKPSVSWIKGDNALRENSRIAVLESGSLRIHNVQKEDAGQYRCVAKNSLGTAYSKLVKLEVEVFARILRAPESHNVTFGSFVTLRCTAIGIPVPTISWIENGNAVSSGSIQESVKDRVIDSRLQLFITKPGLYTCIATNKHGEKFSTAKAAATVSIAEWSKSQKDSQGYCAQYRGEVCDAVLAKDALVFFNTSYRDPEDAQELLIHTAWNELKAVSPLCRPAAEALLCNHLFQECSPGVVPTPMPICREYCLAVKELFCAKEWQAMEGKAHRGLYRSGMHLLPVPECSKLPSMHRDPTACTRLPYLDYKKENITTFPSITSSRPSADIPNLPASTSSFAVSPAYSMTVIISIVSSFALFALLTIATLYCCRRRKEWKNKKRESTAVTLTTLPSELLLDRLHPNPMYQRMPLLLNPKLLSLEYPRNNIEYVRDIGEGAFGRVFQARAPGLLPYEPFTMVAVKMLKEEASADMQADFQREAALMAEFDNPNIVKLLGVCAVGKPMCLLFEYMAYGDLNEFLRSMSPHTVCSLSHSDLSTRARVSSPGPPPLSCAEQLCIARQVAAGMAYLSERKFVHRDLATRNCLVGETMVVKIADFGLSRNIYSADYYKADGNDAIPIRWMPPESIFYNRYTTESDVWAYGVVLWEIFSYGLQPYYGMAHEEVIYYVRDGNILACPENCPLELYNLMRLCWSKLPADRPSFCSIHRILQRMCERAEGTVGV
On to B1, for which, in test [4], the binding result is reported as “binds”.

B2: MuSKect-Myc, a secreted form of MuSK's extracellular domain fused with Myc (domain or fragment, UniProt Q61006 22-494)
chain: EKLPKAPVITTPLETVDALVEEVATFMCAVESYPQPEISWTRNKILIKLFDTRYSIRENGQLLTILSVEDSDDGIYCCIANNGVGGAVESCGALQVKMKPKITRPPINVKIIEGLKAVLPCTTMGNPKPSVSWIKGDNALRENSRIAVLESGSLRIHNVQKEDAGQYRCVAKNSLGTAYSKLVKLEVEVFARILRAPESHNVTFGSFVTLRCTAIGIPVPTISWIENGNAVSSGSIQESVKDRVIDSRLQLFITKPGLYTCIATNKHGEKFSTAKAAATVSIAEWSKSQKDSQGYCAQYRGEVCDAVLAKDALVFFNTSYRDPEDAQELLIHTAWNELKAVSPLCRPAAEALLCNHLFQECSPGVVPTPMPICREYCLAVKELFCAKEWQAMEGKAHRGLYRSGMHLLPVPECSKLPSMHRDPTACTRLPYLDYKKENITTFPSITSSRPSADIPNLPASTSSFAVSPAYSMT
Turning to B2, the binding entry with Flag-tagged Wnt7a [5] is listed as “no binding”; in the test with Flag-tagged Wnt9a [6], “binds”; with Flag-tagged Wnt11 [7], “binds”.
